Measured values reported in PubChem BioAssay AID2546 (National Center for Advancing Translational Sciences (NCATS), 2010).
The whole screen tested about 310,000 compounds, of which about 11,000 (3.5%) were called active. The shares of active, inactive and inconclusive entries below differ from those in the screen. Calls follow the shape of the dose curve; as a rule, active = well fitted inhibition curve with a large enough effect; inconclusive = small, poorly fitted or top-dose-only effect, or effect the other way; inactive = flat fitted curve, though single readings scatter. Potencies of inconclusive entries are left out as doubtful fits.

assay: VP16 counterscreen qHTS for inhibitors of ROR gamma transcriptional activity; conditions: Drosophila S2 Gal4-VP16 UAS-luciferase, luminescence, 20 h; activity, negative = inhibition: at 53.6 µM (top of the series);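 also: Gal4-VP16 expression switched on by copper sulfate through the metallothionein promoter; nearly all actives have a fitted effect of over 50% in size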
% is scaled to controls: 0 for no effect and ±100 for the full control effect; potency is read from the fitted curve at half-maximal effect; tags tell the direction and shape of the fitted curve.

Row | Compound | activity, negative = inhibition | Potency
1 | CC(=O)Nc1ccc(N2CCN(C(=O)c3cccs3)CC2)cc1 | inactive: 1.11% | –
2 | COc1ccc(-c2c(C(F)(F)F)oc3cc(OCC(=O)Nc4ccccc4C(F)(F)F)ccc3c2=O)cc1OC | – | inconclusive [inhibitor, single point]
3 | Cc1ccccc1OCC(=O)NCC(=O)N/N=C/c1ccc(Br)o1 | inactive: -2.73% | –
4 | COc1ccccc1-c1sc2ccccc2c1-c1ccc(C(C)=O)cc1 | inactive: 21.8% | –
5 | COc1cccc(-c2nn(-c3ccccc3)cc2C(=O)Nc2nccs2)c1 | – | active: 17.8 µM
6 | Cc1cc(C)nc(NC(=O)/C=C/c2ccc3c(c2)OCO3)c1 | – | inconclusive [activator, single point]
7 | COCCCn1cnc2oc3nc4ccccc4nc3c2c1=O | – | active: 1.26 µM
8 | Cc1ccc2oc3c(c(=O)c2c1)C(c1cccs1)N(CCCN(C)C)C3=O (stereo unspecified) | – | inconclusive [inhibitor, single point]
9 | COc1ccccc1-c1cn(S(=O)(=O)c2ccc(F)cc2)nc1N | – | inconclusive [inhibitor, single point]
10 | COC(=O)Cc1csc(Nc2ccc(F)c(Cl)c2)n1 | – | inconclusive [inhibitor, single point]
11 | COCCNC(=O)c1ccc(-n2c(SCc3cc(F)ccc3F)nc3ccccc3c2=O)cc1 | – | inconclusive [inhibitor, single point]
12 | C/C(=N\Nc1ncc(Cl)cc1Cl)c1cccs1 | – | inconclusive [inhibitor, single point]
13 | Cc1ccc(C(=O)NC(C)CCc2ccccc2)cc1[N+](=O)[O-] (stereo unspecified) | – | inconclusive [inhibitor, single point]
14 | COc1cccc(C(=O)Nc2nc3ccccc3s2)c1 | – | active: 14.1 µM
15 | Oc1ccccc1-c1cc(-c2ccco2)[nH]n1 | – | inconclusive [inhibitor, single point]
16 | CC1CCC/C(=N\NC(=S)Nc2ccccc2)C1 (stereo unspecified) | – | inconclusive [inhibitor, single point]
17 | CCOC(=O)c1c(C)[nH]c(C(=O)COC(=O)/C=C/c2cccc(OC)c2OC)c1C | inactive: -2.23% | –
18 | O=C(N/N=C/c1ccco1)c1cc([N+](=O)[O-])cc([N+](=O)[O-])c1 | – | active: 10 µM
19 | COC(=O)c1[nH]c2ccc(C)cc2c1NC(=O)CCN1CCN(Cc2ccc3c(c2)OCO3)CC1 | – | inconclusive [inhibitor, single point]
20 | Cc1nc2ccc(-c3nc4cc(N)ccc4o3)cc2[nH]1 | – | inconclusive [inhibitor, partial curve]
21 | CCOC(=O)/C(C#N)=C/c1ccc(OC)c(OC)c1 | inactive: 0.176% | –
22 | COc1cccc(C(=O)N/N=C(/CCC(=O)O)c2ccccc2)c1 | inactive: 25.4% | –
23 | Cc1ccc(Cl)cc1N1CCN(C(=O)c2noc(C(C)C)c2[N+](=O)[O-])CC1 | – | inconclusive [inhibitor, partial curve]

Row | Compound | activity, negative = inhibition | Potency
24 | COCCN(C(=O)CSc1nnc(-c2ccc(Cl)cc2)o1)c1c(N)n(CC(C)C)c(=O)[nH]c1=O | – | inconclusive [activator, single point]
25 | Nc1nonc1-n1nnc(C(=O)N/N=C/c2ccncc2)c1CSc1ccccc1 | – | inconclusive [inhibitor, full curve, poor fit]
26 | Cc1ccc(C2=NN(CCC#N)C(=O)CO2)cc1 | inactive: 14.9% | –
27 | COc1ccc2nc(NC(=O)CS(=O)(=O)Cc3ccccc3)sc2c1 | – | inconclusive [inhibitor, single point]
28 | Cc1sc(NC(=O)c2ccccc2)c(C(c2ccc(Cl)cc2)N2CCN(CCO)CC2)c1C (stereo unspecified) | – | active: 22.4 µM
29 | Cc1cc(C)cc(NCc2cc(=O)oc3cc(-c4ccccc4)c(O)cc23)c1 | – | inconclusive [inhibitor, single point]
30 | N/C(=N\OC(=O)c1ccc([N+](=O)[O-])cc1)c1cccnc1 | – | inconclusive [activator, single point]
31 | CS(=O)(=O)N1CCC(c2noc(-c3ccc(C(F)(F)F)cc3)n2)CC1 | – | active: 10 µM
32 | COc1ccccc1-c1nnc(NC(=O)c2ccc3ncsc3c2)o1 | – | active: 0.501 µM
33 | Cc1cccc(C(=O)NC(=S)Nc2ccc(Cc3ccncc3)cc2)c1 | – | inconclusive [inhibitor, single point]
34 | CC1CCCN(C(=O)CCCn2c(=S)[nH]c3ccccc3c2=O)C1 (stereo unspecified) | – | inconclusive [inhibitor, single point]
35 | N#Cc1cccc(N=c2ssnc2Cl)c1 | – | inconclusive [inhibitor, single point]
36 | Cc1ccc(-n2cc[nH]c2=S)c(C)c1 | – | inconclusive [inhibitor, single point]
37 | Cc1ccc2nc(-c3ccc(N4C(=NC(=O)CCC(=O)O)SC5CS(=O)(=O)CC54)cc3)sc2c1 (stereo unspecified) | inactive: 1.37% | –
38 | CC1CCCCN1CCCNC(=O)CN1C(=O)c2cccnc2Oc2ccc(Cl)cc21 (stereo unspecified) | – | inconclusive [inhibitor, single point]
39 | O=C(c1cc2ccccc2[nH]1)N(Cc1cccnc1)CC1CCCN(C2CCCCC2)C1 (stereo unspecified) | inactive: 11.4% | –
40 | O=C(N1CCN(c2ccccn2)CC1)N1c2ccccc2Sc2ccccc21 | inactive: -23.8% | –
41 | Clc1ccc(-n2ncc3c(N4CCCC4)ncnc32)cc1 | – | inconclusive [inhibitor, full curve]
42 | Cc1ccc(NC(=O)Cc2nn(C)c(=O)c3ccccc23)cc1F | – | active: 11.2 µM
43 | COc1ccc(-c2noc(CCC(=O)NCc3ccco3)n2)cc1 | – | inconclusive [inhibitor, partial curve]
44 | COc1cccc(/C=N/Nc2snc(SC)c2C#N)c1O | – | inconclusive [inhibitor, single point]
45 | CC(C)CCN(C(=S)Nc1cccc(F)c1)C(C)c1cccs1 (stereo unspecified) | – | inconclusive [inhibitor, single point]
46 | O=[N+]([O-])c1cc(C=Nc2ccc3ccccc3c2)ccc1Br | – | inconclusive [inhibitor, single point]
